Results: the supplement of paper PMC10338343
± gives the standard deviation. The entries are a selection whose mix differs from that of the whole data set.

Each sequence was assayed on MIWI (PIWIL1) piRISC loaded with L1MC piRNA (30 nt) (assay: pre-steady-state target cleavage rate (min^-1); MIWI and MILI are mouse PIWI proteins and EfPiwi is from a freshwater sponge; tags in brackets are library labels; higher = faster piRNA-guided slicing of the target). Settings: guide: L1MC piRNA 5'p-UAACUAAAUACUAUGCAAGCUGUAGGUCCU; auxiliary factor: 500 nM mouse GTSF1.
How it was run: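 The pre-steady-state cleavage rate was calculated from a burst-and-steady-state fit. Data came from Cleave-'n-Seq, in which […] transcribed, DNA-blocked target RNA library was mixed with 1 nM active affinity-purified piRISC carrying one synthetic guide, with or without 500 nM GTSF1 partner protein, in HEPES–potassium acetate buffer at 33 °C for 0–8 or 0–960 min. Uncleaved targets were sequenced and normalised to depth and to weakly complementary targets, three trials were pooled, and k3 was capped at 0.0001 min^-1.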
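Further: 1 nM active piRISC with 0.1 nM target library at 33 °C single turnover.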

Sequence | pre-steady-state target cleavage rate
UCCUGGAUGUCGUUGCAUGGUAUUUAGUUA | 0.00724 ± 0.0025
UCCUGGAUCAGCUUGCUAUAGUAUUUAGUUA | 0.00584 ± 0.0043
UCCUGGAACAGCUUGCAUAGAAUUUACAAA | 0.148 ± 0.034
UCCUGGAUGUCCUUGCAUAGUAUAAUGUUA | 0.0139 ± 0.0063
AGGACCUACAGCUUGCAUAGUUAAUUCAAA | 0.786 ± 0.23
UCCUGGAACAGCAACCAUAGUAUUUAGUAA | 0.00452 ± 0.0033
UCCUCCUACAGCUUGCAUAGUAAUUAGAAA | 0.33 ± 0.055
UCCUGGAUGUCGUUGCAUAGUAUUUACGUUA | 0.00982 ± 0.0038
UCCACCAUCAGCUUGCAUAGUAUUUUCAAA | 0.273 ± 0.032
UCCUGGUAGAGCUUGCAUAGUAUUUUCAAA | 0.0173 ± 0.0053
UGGACCUACAGGAAGCAUAGUAUUUAGAAA | 0.198 ± 0.035
AGCUCCUACAGCUUGCAUAGUAUUUUCAAA | 0.323 ± 0.046
UCCACCUACAGCUUGCAUAGAAUUUUCAAA | 0.199 ± 0.039
AGGACCUACACGAUGCAUAGUAUUUACAAA | 0.19 ± 0.025
UCCUGGAUGUGCUUGCAAUGUAUUUAGUUA | 0.0034 ± 0.0032
UCCUGGAACAGCAAGCAUAGUAUUUACAAA | 0.192 ± 0.048
UCCUGGUACAGCUUGCAUAGUAUUAACAAA | 0.137 ± 0.023
UCCUGGAUCAGCUUGCAUAGUAUAAACAAA | 0.0518 ± 0.015
UCCUCCUACAGCUUGCAUAGAUAUUUAGUUA | 0.0587 ± 0.024

Sequence | pre-steady-state target cleavage rate
UCCUCCUACAGCUUGCAUAGAUUUUAGAAA | 0.0307 ± 0.011
UCCUGGAACAGCAUCCAUAGUAUUUAGUUA | 0.0928 ± 0.018
UCCUCCUACAGCUUGCAUAGUUAUUACAAA | 0.0164 ± 0.007
UGGACCUACAGCUUGCAUAGUAAUUAGAAA | 0.259 ± 0.051
UCCUGGAACAGCUUGCAUAGUAUUAUCUAA | 0.167 ± 0.03
UCCUGCUACUGCUUGCAUAGUAUUUUCAAA | 0.194 ± 0.042
UGGCACCUACAGCUUGCAUAGUAUUUAGUUA | 2.2 ± 0.89
UCCUGGAACAGCUUGCAUAGUAAAAAGAAA | 0.014 ± 0.0079
UCCUGGUACAGCUUGCAUAGUAAUUACAAA | 0.0727 ± 0.021
AGGACCUACAGCUUGCAUAGUAAUUUCAAA | 0.373 ± 0.073
UCCACCUACAGCUUGCAAUCUAUUUAGUUA | 0.194 ± 0.018
UCCUGGAUGUCCUUGCAUAGUAUUAAGUAA | 0.00616 ± 0.0043
UCCUGGAUGUCGAUGCAUAGUGUUUAGUUA | 0.00475 ± 0.0042
UCGACCUACAGCUUGCAUAGUAUUUUCAAA [g6:g28:cont:t1A] | 0.463 ± 0.056
UCCUGCUAGAGCUUGCAUAGUAUUUACAAA | 0.186 ± 0.047
UCCUGCUACAGCAAGCAUAGUAUUUAGUAA | 0.726 ± 0.084
UCCUGGAUGUCGCUGCAUAGUAUUUAGUUA | 0.00886 ± 0.0026
UCCUCCUACAGCAAGCAUAGUAUUUAGAAA | 0.391 ± 0.062
